Values marked as one replicate rest on one cluster of the flow cell; about a third of the high ones do not repeat.
System: ATP
Assay: switch fluorescence ratio, 500 uM ATP over buffer (Cy3 cluster intensity, sum of 5 cycles each) (fold (ratio)); higher = stronger signal-on switching upon ATP binding; sequences stand for … in TCGTCGGCAGCGTCAGATGTGTATAAGAGACAGTTTTTTTTTTTTTTTTTTTTTTTTT…TC
Conditions: aptamer strand: ATP DNA aptamer (quencher-CACCTGGGGGAGTATTGCGGAGGAAGG + anchor), 100 nM annealed; ATP concentration: 500 uM; one replicate
In short: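 Between each of five buffer/ATP cycles, the flow-cell was stripped with NaOH and re-annealed. Each cycle imaged Cy3-labelled switching-strand clusters, annealed to 100 nM quencher-labelled ATP aptamer on a modified Illumina MiSeq flow-cell, first in selection buffer and then after 15 min with 500 uM ATP at 22 °C. The fluorescence ratio is summed target-cycle over summed buffer-cycle Cy3 intensity per cluster, averaged per switch-domain sequence, with clusters outside 100-1000 RFU excluded.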
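Also: ATP exposure 15 min at 22 °C before imaging.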

Sequence | switch fluorescence ratio
TGCCACCGGA | 0.977
GACCGCGGCA | 1.06
ACTAATGATG | 0.947
AGGAACTGAG | 1.03
CATTCGCAGA | 3.15
AATCGTCTAT | 1.02
CTGATTCTTA | 0.992
GAAGTACGCC | 1.12
TCCACAGGCA | 1.12
CCAATCTCCA | 1.47
GAGCGGCTAT | 1.01
TTGGTCCCAG | 1
CTAGAAGGCT | 0.984
GACGGCTCGG | 0.986
TACTGTATGC | 1.12
TCGATAGACC | 1.02
TTCGGGCGGG | 1.02
GTCTGAAGGT | 0.967
CAGATTTCCG | 0.989
TGAGGTGCAA | 1.07
TTGTATCAAA | 0.977
ACGTTTCCGC | 1.24

Sequence | switch fluorescence ratio
GCTTTGCGTC | 0.999
CAAGTTTTGG | 1.03
CAGATACATT | 1.04
AGTTGTGAAC | 0.989
GATCATGTAT | 1.02
CCGTGAATTT | 1.15
GCGGTTGGCC | 1.06
AAATAGAGGT | 1.04
ATGTTGCAGC | 0.966
CGGATTGTGA | 0.999
GGGTACTTGA | 1.05
TATCATCCAG | 0.964
TAACGATGCT | 1.01
CCGACACCAG | 1.14
GGTAAGGCTC | 0.928
GACAGCGCT | 1.04
CTAAACGGGT | 0.986
TGACTCCGG | 2.32
GTGCATGATG | 1.03
TCAGTGGGTA | 0.961
AACATTATGG | 1.04
AATGAAGGG | 1.03

Sequence | switch fluorescence ratio
GCGGTCATAA | 0.973
CACCGATTA | 1.04
TGGCGCGTAA | 1.03
TAGGTCAAT | 1.02
CGGGTGCCCT | 1.01
AGGGGAGGG | 0.976
TACTGGACGG | 1.23
CTCTTCTTAA | 1.03
ACATTAAGTG | 1.02
GGTGAAGCAG | 1
AGGTAACCTG | 1.3
AGTTACTCGA | 1.05
CCTAGCGCTG | 1.44
GGTTAACACT | 1.04
GCTGTTAAAT | 0.974
AGATGGTATA | 0.974
AAGTGAGACA | 1.04
ATGTGAGTCT | 1.04
CCAAAAGGT | 1
GATCCGCAGG | 1.11
TAGTCAAATG | 0.979
GTTGTCCTGT | 0.953

Sequence | switch fluorescence ratio
CTCATGGAGG | 0.986
CATCCAGAGT | 1.03
CGATCTGGGT | 0.971
ATTCATGTA | 1
AGCACTCGGC | 1.04
TGTCAAAGGC | 1.03
AACTAAACGC | 1.06
CGTCAACC | 1.1
ATTCACTCGA | 1.03
ACGGCCCCGC | 1.16
GTTATTGTAC | 1.03
TCTGAATACT | 1.26
CCGATTGGGA | 1.04
ACGACGTGAG | 0.957
TGCTATGACT | 0.954
CGCCTGAAGT | 0.996
AAAACTCTAT | 1.02
TGTCCTAGTA | 0.988
ACTATGAGAG | 0.987

From the supplement of paper PMC10126150
